Assay results published in PubChem BioAssay AID1508624 (National Center for Advancing Translational Sciences (NCATS), 2021).
The whole screen tested about 48,000 compounds, of which about 120 (0.25%) were called active. Inconclusive results (about 4%) are left out. Calls follow the shape of the dose curve; as a rule, active = well fitted activation curve with a large enough effect; inconclusive = small, poorly fitted or top-dose-only effect, or another doubt; inactive = no such curve, though single readings can be large or run the other way. The list shows a part of the results.

Test: Primary qHTS for Identification of Small Molecule Activators of Huntingtin-Antisense Promoter Activity; also: nearly all actives have a fitted effect of over 55% in size
Details: HEK293 HTT-AS promoter firefly luciferase reporter, 24 h; series mostly up to 57.5 µM; activity change, positive = activation: at the top concentration
Procedure, shortened: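 HEK293 cells carrying firefly luciferase reporters were seeded at 2,500 per well in Opti-MEM and cultured for 24 h. They were then treated with compounds at up to 57.5 uM final for 24 h at 37 degrees C before Dual-Glo luminescence readout.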

Activity change, positive = activation, inactive:
COc1ccc(OCCn2c(C(C)Oc3ccccc3)nc3ccccc32)cc1 (centres undefined) -20.1%
CC1C(=O)Nc2ccc(S(=O)(=O)NCc3ccc(N(C)C)cc3)cc2NC1=O (centres undefined) -11.6%
Cc1ccc(Cl)cc1-n1ncc2c(NCc3ccc(F)cc3)ncnc21 -28.5%
COc1cccc(C(=O)c2cn(CC(=O)Nc3cccc(C(F)(F)F)c3)c3nc(C)ccc3c2=O)c1 -30.2%
CCN(CC)S(=O)(=O)c1ccc2c(c1)nc(CN(C)C(=O)Nc1cccc(Cl)c1)n2C 0.308%
CCCN(CCC)C(=O)CN1C(=O)CSc2ccc(S(=O)(=O)N3CCC(C)CC3)cc21 -26.2%
COc1ccc(Cn2c(CCC(=O)Nc3ccc(C)c(C)c3)nc3cccnc32)cc1 -24.9%
CC(=O)N1CCc2cc(S(=O)(=O)NC(CC(C)C)C(=O)NCCc3ccc(C)cc3)ccc21 (centres undefined) 18.9%
COc1ccc(CNC(=O)C2CCN(S(=O)(=O)c3ccc(F)cc3)CC2)cc1 -26.2%
CSc1ncc(C(=O)Nc2cccc(C)c2C)c(-c2ccccc2)n1 -18.7%
Cc1ccc(O)c2ncccc12 -4.28%
COC(=O)c1ccc2c(c1)N(Cc1cc(C)ccc1C)C(=O)c1ccccc1S2 -9.47%
CCN(c1ccccc1)S(=O)(=O)c1nnc(NC(=O)C(C)(C)C)s1 -19.1%
CCN1CCc2nc3sc(C(=O)c4ccccc4)c(N)c3cc2C1 12.9%
CC(CNC(=O)c1ccc(CSc2nc3ccncc3n2Cc2ccc(F)cc2)cc1)c1ccccc1 (centres undefined) -25.5%
CCC(C(=O)NCc1ccccc1OC)n1nc(C)n2c(cc3sccc32)c1=O (centres undefined) -9.57%
CCOC(=O)c1c(S(=O)(=O)NCC(=O)Nc2ccc(C)c(Cl)c2)c(C)n(C)c1C -16.7%
CSc1ncc(C(=O)NCc2ccccc2)c(-c2ccccc2)n1 -21.1%
COc1ccc(NC(=O)C2CCCN2S(=O)(=O)c2cccc3cccnc23)cc1OC (centres undefined) -11.2%
CC(C)Oc1ccc(CNC(=O)c2ccc(NC(=O)N3CCSc4ncccc43)cc2)cc1 -26.9%
CCOc1ccc(C2c3[nH]c4ccccc4c3CCN2C(=O)Cc2cccc(OCC)c2OCC)cc1 (centres undefined) -18.8%
Cc1ccccc1Cn1nnc2c(=O)[nH]c(C3CCN(C(=O)c4ccccc4)CC3)nc21 -15%
CCOC(=O)c1cnc2ccc(C(=O)OC)cc2c1Nc1ccccc1CC -47.9%
Cc1cn([C@H]2C[C@H](F)[C@@H](CO)O2)c(=O)[nH]c1=O -11.7%
Cc1cc(C)cc(-n2ccnc2SCC(=O)Nc2nc3ccccc3s2)c1 -38%
CCCCNc1nc(Oc2ccc(OCC(N)=O)nn2)nc(N2CCOCC2)n1 1.21%
COc1ccc(C2C(=O)c3ccccc3C2=O)cc1 3.53%
CC(C)n1c(C=C[C@H](O)C[C@H](O)CC(=O)O)c(-c2ccc(F)cc2)c2ccccc21 22.9%
CCOc1cc(C2c3c(oc4ccc(F)cc4c3=O)C(=O)N2Cc2ccco2)ccc1O (centres undefined) -16.5%
Cc1ccc(-c2cc(C(=O)NCc3cnn(C)c3)c3cc(Br)ccc3n2)cc1 17.1%
Cc1ccc(-n2c(SCC(=O)Nc3ccc4c(c3)OCO4)nc3c([nH]c4ccccc43)c2=O)cc1 5.36%
CCc1ccccc1N(C)C(=O)c1cnc(N2CCOCC2)c2ccccc12 -16.6%
Cc1cc(Br)ccc1NC(=O)c1cn(C2CCCC2)c(=O)c2c1c1ccccc1n2C 6.33%
Cc1ccc(Cc2nc3ccccc3nc2SCC(=O)NCc2ccc(F)cc2)cc1 -15.7%
Cc1cccc(C(=O)N2CCc3cc(CNC(=O)Cc4ccc(F)cc4)ccc32)c1 -43.4%
COc1ccc(CCNc2ncnc3c2c(-c2ccccc2)cn3-c2ccc(F)cc2)cc1OC -42.1%
CCC(=O)C1=C(c2cccc([N+](=O)[O-])c2)N(C(=O)CC)n2c(nnc2-c2ccccc2)S1 -18.4%
CN(C)c1ccc(CNC(=O)C2CCN(S(=O)(=O)c3ccc4c(ccn4C)c3)CC2)cc1 -16%
Cc1ccc(C)c(Nc2nn3c(=O)c4ccc(C(=O)NCCc5ccccc5)cc4nc3s2)c1 -2.95%
Cc1n[nH]c(C)c1S(=O)(=O)N1CCCC(C(=O)Nc2ccc(Cl)cc2)C1 (centres undefined) -46.7%
CCN(C(=O)Cn1cc(S(=O)(=O)Cc2ccccc2Cl)c2ccccc21)c1ccccc1 -35.9%
CN(C)c1ccc2nc3ccc(=[N+](C)C)cc-3sc2c1
Cc1ccc(N2CCN(C(=O)c3c4c(nc5ccccc35)C(=O)N(C3CCCCC3)C4)CC2)c(C)c1 4.24%
COc1ccc(C(=O)Nc2nc3c(s2)CCc2cc(OC)ccc2-3)cc1 0.846%
COCCCn1c(SCC(=O)NCc2ccccc2)nc2c(sc3ccccc32)c1=O -5.2%
CCn1cc(C(=O)NCCCN(CC(C)C)CC(C)C)c(=O)c2cc(S(=O)(=O)N(C)C3CCCCC3)ccc21 1.83%
COc1ccc(NC(=O)CCc2nnc3n(C)c(=O)c4sccc4n23)cc1Cl -8.67%
COc1cccc(N2C(=O)N(Cc3ccc(C#N)cc3)c3ccccc3S2(=O)=O)c1 -27.7%
CCc1ccccc1NC(=O)Cn1c(=O)n(CC2CCC(C(=O)NCCc3ccccc3)CC2)c(=O)c2ccccc21 (centres undefined) -13.7%
O=S(=O)(c1ccccc1F)N1CCC(Oc2ccc(-n3cnnn3)cc2)CC1 -37.6%
CCC(=O)N1CCc2cc(Br)cc(S(=O)(=O)CCC(=O)Nc3ccc(C)c(C)c3)c21 2.67%
COc1ccc(-c2noc(-c3ccc(NCc4cccnc4)c([N+](=O)[O-])c3)n2)cc1 -6.62%
COc1ccc(CCNC(=O)Cn2c(=O)n(-c3cc(OC)c(OC)c(OC)c3)c(=O)c3ccccc32)cc1OC 0%
COc1cccc(CNc2nc3c(-c4ccccc4)nnn3c3ccccc23)c1 5.76%
Cc1ccc2oc(=O)c3cnn(CC(=O)N4CCN(c5cc(Cl)ccc5C)CC4)c3c2c1 -5.4%
CN1C(C(=O)Nc2ccccn2)=C(O)c2sccc2S1(=O)=O
CCOc1ccc(NC(=O)c2cc(S(=O)(=O)N3CCCCC3)c[nH]2)cc1 -23.9%
CC(CSC(=O)c1ccccc1)C(=O)N1C[C@@H](Sc2ccccc2)C[C@H]1C(=O)O (some centres undefined) -7.05% [at 25.1 µM, percent change from vehicle, -100% = no light]
CCOc1ccc(CCNCc2c(C(=O)O)n(Cc3ccc(C)cc3)c3cc(OC)ccc23)cc1 -20.1%
CN(Cc1ccccc1)C(=O)CSc1nc2ccsc2c(=O)n1-c1ccc(F)cc1 -18.2%
CC(C)C(C)C=CC(C)C1CCC2C3=CC=C4CC(O)CCC4(C)C3CCC21C (centres undefined) -21.1%
COc1ccc(C(=O)/C=C/c2cn(CC(O)CN(CC(C)C)CC(C)C)c3ccccc23)cc1 (centres undefined) -32.2%
CCOC(=O)c1nc(N2CCN(c3ccc(F)cc3)CC2)c2c(C)noc2n1 -13.8%
CCn1c(=O)n(-c2ccc(F)c(Cl)c2)c(=O)c2c3c(sc21)CN(C(C)=O)CC3 0.082%
COc1cccc(C(=O)Nc2ccc(-c3nc4ccccc4s3)cc2Cl)c1 9.94%
COc1cccc(N2C(=O)CSC23C(=O)N(Cc2ccccc2)c2ccccc23)c1 (centres undefined) -18%
Cc1ccc(C)c(CSc2cn(CC(=O)N3CCCCCC3)c3ccccc23)c1 -6.43%
COc1ccc(-c2csc3nc(-c4ccc(F)cc4)oc(=O)c23)cc1 1.15%
COc1ccc(NC(=O)CCCc2nnc3n(CCC(C)C)c(=O)c4sccc4n23)c(OC)c1 -3.2%
COCCNC(=O)c1ccc(-n2c(-c3ccccc3)cc3c2CCCCC3)cc1 8.94%
COc1ccc(C2=NS(=O)(=O)N(C)C(C(=O)NCc3ccccc3)=C2)cc1OC -13%
Cc1ccc(S(=O)(=O)c2nc(-c3ccccc3Cl)oc2N2CCCCCC2)cc1 -24.7%
CCc1ccc(NC(=O)C(=O)NCC(c2ccc3c(c2)OCO3)N2CCOCC2)cc1 (centres undefined) -14.9%
Cc1ccc(Cl)c(NC(=O)Nc2csc3c2CCCC3)c1 5.84%
CN1C(=O)c2ccccc2Sc2ccc(NC(=O)COc3ccccc3)cc21 -47.9%
Cc1ncc([N+](=O)[O-])n1CC(O)CCl (centres undefined) -7.57%
Cc1oc(-c2ccc(Cl)cc2)nc1Cn1c(=O)cc(C)c2c(C)nn(-c3cccc(F)c3)c21 -15.6%
CCn1cc(C(=O)N2CCN(c3ccc(F)cc3)CC2)c(=O)c2cc(S(=O)(=O)N3CCOCC3)ccc21 -2.25%
COc1ccc(NC(=O)C(=O)NCC(c2ccc3c(c2)OCO3)N2CCN(C)CC2)cc1 (centres undefined) -7.27%
COc1ccc(N2CCN(c3c4c(nc5nncn35)CCC4)CC2)cc1 -52.3%
CCOc1cc(CNC(=O)CCCn2c(=O)c3cccn3c3cccnc32)cc(OCC)c1OCC -9.74%
COc1ccc(CCNC(=O)c2cc(Nc3cc(C)cc(C)c3)nc3ccccc23)cc1OC -32.9%
CCc1ccccc1NC(=O)CSc1ncc(S(=O)(=O)c2ccccc2)c(N)n1 -27.3%
CC(=O)Nc1cccc(NC(=O)CSc2cn(CC(=O)N(C(C)C)C(C)C)c3ccccc23)c1 -14.6%
CCc1ccccc1NC(=O)Cn1nnc(-c2nc(-c3ccc(C)cc3)no2)c1N -8.39%
COc1ccc(C[C@@H](C)[C@@H](C)Cc2ccc(OC)c(OC)c2)cc1OC -51.3%
CC[C@H]1CN2CCc3cc(OC)c(OC)cc3[C@H]2C[C@@H]1C[C@@H]1NCCc2cc(OC)c(OC)cc21 -35.1%
Cc1ccc2c(c1)sc1nc(-c3cc4ccccc4oc3=O)cn12 -86.6%
CCOC(=O)c1ccccc1NC(=O)CN1C(=O)CC(c2ccco2)Sc2ccccc21 (centres undefined) -27.4%
O=C(c1ccc2c(c1)N(Cc1ccc(Cl)cc1)C(=O)c1ccccc1S2=O)N1CCN(c2ccccc2F)CC1 (centres undefined) -30.4%
COc1ccc(-c2nc(C(N)=O)c3c(n2)n(-c2ccccc2OC)c(=O)n3C)c(OC)c1 -20.3%
O=C(c1ccc(F)cc1)N1CCC(c2nc3ccccc3o2)CC1 -18.1%
CSc1cccc(NC(=O)C2CCN(c3ncnc4c3nc3n4CCCCC3)CC2)c1 -22.1%
CC(C)NC(=O)CC(=O)Nc1ccc2nc3n(c(=O)c2c1)CCCCC3 -5.43%
